This is an account of results in publication PMC7278352, “Phosphorylation of the overlooked tyrosine 310 regulates the structure, aggregation, and microtubule- and lipid-binding properties of Tau” (The Journal of Biological Chemistry, 2020).

This series deals with the molecule itself. The experiment in a line: heparin-induced aggregation (ThT fluorescence, sedimentation by ultracentrifugation with SDS-PAGE, EM, CD); self-association: 10 uM protein with 2.5 uM heparin (heparin:protein 1:4) in 10 mM phosphate pH 7.4, 50 mM NaF, 0.5 mM DTT, 37 C, orbital shaking at 1000 rpm; fibrils pelleted at 200,000 x g for 2 h.

B1: Tau 4F/pTyr-394 (phosphorylated only at Tyr-394) (natural protein)
chain: not shown
modifications: phosphotyrosine at Tyr-394 (complete phosphorylation)
notes: also called 4F/pY394; source: E. coli BL21, purified; phosphorylated in vitro by recombinant c-Abl, purified by RP-HPLC
With B1, the binding result is listed as “binds”.

B2: Tau 4F/Tyr-394 (all tyrosine residues except Tyr-394 mutated to phenylalanine) (natural protein)
chain: not shown
notes: source: E. coli BL21, purified (MonoS cation exchange, RP-HPLC C4)
On to B2, for which the binding result was “binds”.
